Consider 15 molecules from the supplement of paper PMC10300432.

Recombinant human monoclonal antibodies (heavy:light variable regions). ELISA EC50 on the named antigen, from 10 µg/ml down; IC50 against spike pseudovirus on HT1080-ACE2 cells, 48 h; lower = stronger. Calls: IC50 above 1,000 ng/ml = non-neutralizing; EC50 above 1,000 ng/ml = non-binder.

In experiment [1] the target is SARS-CoV-2 Omicron BA.1 spike pseudovirus. The experiment in a line: pseudovirus neutralization IC50; higher = weaker neutralization. The protocol:
(§1)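 Single-round luciferase reporter pseudovirus mixed with antibody dilutions and put on HT1080-ACE2 clone 14 cells for 48 h; signal relative to no-antibody wells, four-parameter fit.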

Experiment [2] addresses SARS-CoV-2 Omicron BA.4/5 spike pseudovirus. Described as above. How it is done:
as §1

Experiment [3] has as its target SARS-CoV-2 Wuhan-Hu-1 spike pseudovirus. Described as above. How it is done: as §1
Experiment [4] deals with SARS-CoV-2 Wuhan-Hu-1 spike receptor-binding domain. Description: ELISA binding EC50; higher = weaker binding; ELISA of recombinant human antibody on coated antigen, from 10 µg/ml in fourfold dilutions; four-parameter fit. A general note: An ELISA detects its analyte on a solid surface through an enzyme-linked reagent.

B1: C5176 (protein)
chain 1: EVQLVQSGAEVKKPGESLKISCKGSGYTFTTYWIGWVRQMPGKGLEWMGVIYPGDSDTRYDPSFQGQVTISADKSINTAYLQWSSLKASDTAMYYCAKLRGMALPAPPDYWGQGTLVTVSS
chain 2: DIQMTQSPSSLSASVGDRVTITCQASQDISNYLDWYQQKPGKAPKVLIYEASNLEKGVPSRFSGSRSGTDFTFTISSLQPEDIATYYCLQYHNLPLTFGGGTKVEIK
For B1, the results for the “pseudovirus neutralization IC50” value in experiment [1], in experiment [2] and in experiment [3] were greater than 1 µg/mL, greater than 1 µg/mL and 0.76 µg/mL, respectively. Further, the “ELISA binding EC50” value in experiment [4] came to 0.00558 µg/mL.

B2: C5173 (protein)
chain 1: QVQLVQSGSELKKPGASVKVSCKASGYTFTNYALHWVRQAPGQGLEWLGWINTDSGTPTYAQGFTGRFVFSLDTSVSMSYLQINSLKAEDTAVYFCAKTRCTGAFCYAHSYYYSMDVWGQGTTVTVSS
chain 2: SYELTQPPSVAVAPGQTARITCGGDSIGSKSVHWYQQKPGQAPVLVVHDDTDRPSGIPERFSGSNSGNTATLTISRVEAGDEADFYCQVWDTSGVFGGGTKLTVL
For B2, the entries for the “pseudovirus neutralization IC50” value in experiment [1], in experiment [2] and in experiment [3] were 0.342 µg/mL, greater than 1 µg/mL and 0.582 µg/mL, respectively. Further, the “ELISA binding EC50” value in experiment [4] was 0.00406 µg/mL.

B3: C5166 (protein)
chain 1: QVQLVQSGAEVKKPGASVKVSCKASGYTFMNYYIHWVRQAPGQGLEWMGIINPTGGGTTYAQKFQGRVTMTRDTSTSTVILELSMLTSEDTAVYYCARDGIVTTGGEYYYYYGMDVWGQGTTVTVSS
chain 2: QSALTQPASVSGSPGQSITISCTGTSSDVGGSKYVSWYQQHPGKAPKLMIYEVSHRPSGISHRVSGSKSGNTASLTISGLQAEDEGDYYCSSYTTTSTWEFGGGTKLTVL
For B3, the “pseudovirus neutralization IC50” value is 0.0226 µg/mL in experiment [1], greater than 1 µg/mL in experiment [2] and 0.0208 µg/mL in experiment [3]. In experiment [4], the “ELISA binding EC50” value came out at 0.00447 µg/mL.

B4: C5234 (protein)
chain 1: EVQLVQSGAEVKKPGESLKISCEGSGFTFTNYWIGWVRQMPGKGLEWMGIIYPDDSDTTYSPSFEGQVTISADKSISTAYLQWSSLKASDTAMYYCARLLHGYSYGIIDFWGQGTLVTVSS
chain 2: NFMLTQPHSVSESPGKTVTISCTGSGGSIASNYVQWYQQRPGSAPTNVIYEDNQRPSGVPGRFSGSIDSSSNSASLTISGLKTEDEADYYCQSYDVGNYVVFGGGTKLTVL
For the molecule B4, the “pseudovirus neutralization IC50” value in experiment [1], in experiment [2] and in experiment [3] was greater than 1 µg/mL in each case. Moreover, the “ELISA binding EC50” value in experiment [4] came to 0.00731 µg/mL.

B5: C5177 (protein)
chain 1: QVQLVQSGPEVKKPGTSVKVSCKASGFTFISSAVQWVRQARGQRLEWMGWIVVGTGHTNYAQSFQERVTITRDMSTSTAYMEVSSLRSEDTAVYYCAAGIHNGYFYAVDYWGQGTLVTVSS
chain 2: DIQMTQSPSSLSASVGDRVTITCQASQDISDFLNWYQQIPGKAPKLLIYDASNLKTGVPSRFSGSGSGTDFTFTISSLQPEDIATYYCQQYDTLPYNFGQGTKLEIK
Regarding B5, the figures for the “pseudovirus neutralization IC50” value in experiment [1], in experiment [2] and in experiment [3] were 0.00265 µg/mL, 0.106 µg/mL and 0.00235 µg/mL, respectively. Besides, in experiment [4], the “ELISA binding EC50” value turned out to be 0.00306 µg/mL.

B6: C5174 (protein)
chain 1: EVQLVESGGGLIQPGGSLRLSCAASGITVSSNYMTWVRQAPGKGLEWVALIYAGGSTFYADSVKGRFTISRDNSKNTLYLQMNSLRAEDSAVYYCARDLQYYGMDVWGQGTTVTVSS
chain 2: DIQLTQSPSSLSASVGDRVTITCRASQGISNYLAWYQQKPGKAPKLLVYAASTLQSGVPSRFSGSGSGTDFTLTISSLQPEDFATYYCQQIDDYPLFGPGTKVDIK
With B6, the “pseudovirus neutralization IC50” value in experiment [1] turned out to be 0.0434 µg/mL; in experiment [2], 0.0331 µg/mL; in experiment [3], 0.0017 µg/mL. The “ELISA binding EC50” value in experiment [4] is 0.00276 µg/mL.

B7: C5231 (protein)
chain 1: QVQLVQSGAEVKKPGSSVKVSCKTSGHTFSRYAINWVRQAPGQGLEWMGWIIPISGITNYAQSFQGRVTITADESTNTAFMELRGLRSEDTAMYYCARTLYHYDRSGYQRTDDAFDIWGQGTMVTVSS
chain 2: QSVLTQPPSVSGAPGQRVTISCSGSSSNFGASYDVHWYQQLPGTAPKLLIYGNSNRPSGVPDRFSGSKSGTSASLAITGLQPEDEADYYCQSYDNSLVIFGGGTKLTV
Consider B7, for which the “pseudovirus neutralization IC50” value in experiment [1] was 0.127 µg/mL; in experiment [2], greater than 1 µg/mL; in experiment [3], 0.0866 µg/mL. The “ELISA binding EC50” value in experiment [4] was 0.00605 µg/mL.

B8: C5175 (protein)
chain 1: EVQLVESGGGLIQPGGSLRLSCAASGFIVSRNYMSWLRQAPGKGLEWVSVMYSGGSTFYADSVKGRFTISRDNSKNTLYLQMNSLRAEDTAVYYCARDYGDFYFDYWGQGTLVTVSS
chain 2: EIVLTQSPATLSLSPGERATLSCGASEIVSSSHLAWYQQKPGLAPRLLIYDASSRAIGIPDRFSGSGSGTDFTLTISRLEPEDFAVYYCQQYAGSPRTFGQGTKLEIK
B8: the “pseudovirus neutralization IC50” value in experiment [1] is 0.00535 µg/mL; in experiment [2], 0.254 µg/mL; in experiment [3], 0.00406 µg/mL. Besides, in experiment [4], the “ELISA binding EC50” value is 0.0037 µg/mL.

B9: C5167 (protein)
chain 1: QVQLVQSGAEVKKPGSSVTVSCKASGGTFSIYAISWVRQAPGQGFEWMGGIIPMSGTAHYAQRFQGRVTITADESTTTAYMEVSSLRSDDTAVYFCARDMRYYYDSSGYSNYFDYWGQGTLVTVSS
chain 2: DIQMTQSPSSLSASVGDRVTITCRASQGISIYLNWYQQKPGIAPKLLIYGASNLQSGVPSRFSGSGSGTDFALTISSLQPEDFATYYCQQSYSMRTFGGGTKVEIK
In the case of B9, the entries for the “pseudovirus neutralization IC50” value in experiment [1], in experiment [2] and in experiment [3] were 0.00157 µg/mL, greater than 1 µg/mL and 0.000713 µg/mL, respectively. The “ELISA binding EC50” value in experiment [4] came out at 0.00338 µg/mL.

B10: C5233 (protein)
chain 1: QVQLVESGGGVVQPGRSLRLSCAASGFNFNNYDMHWVRQAPGRGPEWVALISDDGRGAFYADSVKGRFTISRDNSRNTLYLQMNSLRAEDTAVYFCARDSDTTVVPVFDYWGQGTLVTVSS
chain 2: DIVMTQSPDSLAASLGERATINCKSSQSVLYSSNNKNYLAWYQQKPGQPPKLLIYWASTRESGVPDRFSGSGSGTDFTLTISSLQADDVAVYYCQQYYINPYTFGQGTKLEIK
B10: the “pseudovirus neutralization IC50” value in experiment [1] is greater than 1 µg/mL; in experiment [2] it was 0.985 µg/mL; in experiment [3], 0.637 µg/mL. In addition, in experiment [4], the “ELISA binding EC50” value worked out at 0.00306 µg/mL.

B11: C5171 (protein)
chain 1: QVQLVESGGGVVPPGRSLRLSCAASGFTFRHYAMHWVRQAPGKGLEWVAGTSYDGEKTAYGDSVKGRCTISRDNPKNALYLQINSLRRDDTAVYYCAKVGGTYCSATSCFGGYLDYWGQGILVTVSS
chain 2: DIQMTQSPSSLSASVGDRVTITCQASQDISNYLNWYQQKPGKAPKLLIYDASNLETGVPSRFSGSGSGTDFTFTISNLQPEDIATYYCQHYDNLPPFTFGPGTKVDIK
Take B11: the “pseudovirus neutralization IC50” value in experiment [1], in experiment [2] and in experiment [3] was greater than 1 µg/mL each time. Further, the “ELISA binding EC50” value in experiment [4] is 0.00611 µg/mL.

B12: C5232 (protein)
chain 1: QVQLQESGPGRVKPSQTLSLTCTVSDGSITSGAYYWSWIRQHPGKGLEWIGFIYNSGSDYNPSLKSRVTISVDTSKNQYSMKLNSVTAADTAVYFCARSAWRRGEFQHWGQGTLVTVSS
chain 2: DIQMTQSPSSLSASVGDRITITCRASQNIINYLNWYQQKPGKAPKLLIFTASSLQSGVPSRFSGSGSGTDFTLTISSLQPEDFATYYCQQSYVTPQVTF
Take B12: the “pseudovirus neutralization IC50” value was greater than 1 µg/mL in experiment [1], 0.855 µg/mL in experiment [2] and 0.0428 µg/mL in experiment [3]. The “ELISA binding EC50” value in experiment [4] turned out to be 0.00521 µg/mL.

B13: C5172 (protein)
chain 1: EVQLVQSGSEVKKPGESLKISCKGSGYTFTYYWIAWVRQMPGKGLEWMGIIYPGDSDTKYSPSFQDQVTFSADRSISTAYLQWSSLRASDTAIYYCARSVSLLSGDVAVTGTEALDFWGQGTLVTVSS
chain 2: EIVLTQSPGTLSLSPGERATLSCRASQSVDSHYLAWYQQKPGQAPRLLMFGASTRATGIPDRFSGSGSGTDFTLVISRLEPEDFAVYHCQYYGNSGGTFGQGTKLEIK
As for B13, the “pseudovirus neutralization IC50” value in experiment [1] is 0.414 µg/mL; in experiment [2] it was 0.707 µg/mL; in experiment [3], greater than 1 µg/mL. For the same molecule, the “ELISA binding EC50” value in experiment [4] worked out at 0.00819 µg/mL.

B14: C5170 (protein)
chain 1: EVQLVESGGGLVKPGRSLRLSCSASGFTFGDFAMSWFRQTPGKGLEWLGFIRSKAFGGTTQYAASVKDRFSISRDDSKSIAYLQMNSLKSEDTAVYYCTRVIPCTSTDGPCYGYYFDYWGQGILVTVSS
chain 2: EIVLTQSPATLSLSPGERATLSCRASQSVSTFLVWYQQKPGQAPRLLIYDASKRAPGIPARFSGSGSGTDFTLTISSLEPEDFAVYYCQQRSNWFSFGGGTKVEIK
For B14, the “pseudovirus neutralization IC50” value in experiment [1] was 0.113 µg/mL; in experiment [2], greater than 1 µg/mL; in experiment [3], 0.000396 µg/mL. Also, the “ELISA binding EC50” value in experiment [4] was found to be 0.00307 µg/mL.

B15: C5168 (protein)
chain 1: QVQLVQSGPEVKKPGSSVKVSCKASGGTFRDHALSWVRQAPGQGLEWMGKIIPVFNAVNYEQKFQGRVTISADKSTSTVYMELSSLKFDDTAVYFCARSPAPHIAIEEWFDPWGQGTLVTVSS
chain 2: QSVLTQPPSVSGAPGQRVTISCTGSSSNIGAGYDVHWYQQLPGTAPKLLIYGNNNRPSGVPDRFSGSKSGTSASLAISGLQAEDEADYYCQSYDSSVSVFYVFGTGTKVTV
Take B15: the figures for the “pseudovirus neutralization IC50” value in experiment [1], in experiment [2] and in experiment [3] were 0.00165 µg/mL, greater than 1 µg/mL and 0.000332 µg/mL, respectively. Also, the “ELISA binding EC50” value in experiment [4] was determined as 0.0037 µg/mL.
